# In the supplement of paper PMC3334620:
# The full ranking holds about 33,000 sequences; the median of “E-score (-0.5 to 0.5)” is about -0.054, and the highest 2% start at about 0.35. The list shows a part of the results.
# Molecular target: T1, Stb5 (UniProt P38699)
# T1 sequence: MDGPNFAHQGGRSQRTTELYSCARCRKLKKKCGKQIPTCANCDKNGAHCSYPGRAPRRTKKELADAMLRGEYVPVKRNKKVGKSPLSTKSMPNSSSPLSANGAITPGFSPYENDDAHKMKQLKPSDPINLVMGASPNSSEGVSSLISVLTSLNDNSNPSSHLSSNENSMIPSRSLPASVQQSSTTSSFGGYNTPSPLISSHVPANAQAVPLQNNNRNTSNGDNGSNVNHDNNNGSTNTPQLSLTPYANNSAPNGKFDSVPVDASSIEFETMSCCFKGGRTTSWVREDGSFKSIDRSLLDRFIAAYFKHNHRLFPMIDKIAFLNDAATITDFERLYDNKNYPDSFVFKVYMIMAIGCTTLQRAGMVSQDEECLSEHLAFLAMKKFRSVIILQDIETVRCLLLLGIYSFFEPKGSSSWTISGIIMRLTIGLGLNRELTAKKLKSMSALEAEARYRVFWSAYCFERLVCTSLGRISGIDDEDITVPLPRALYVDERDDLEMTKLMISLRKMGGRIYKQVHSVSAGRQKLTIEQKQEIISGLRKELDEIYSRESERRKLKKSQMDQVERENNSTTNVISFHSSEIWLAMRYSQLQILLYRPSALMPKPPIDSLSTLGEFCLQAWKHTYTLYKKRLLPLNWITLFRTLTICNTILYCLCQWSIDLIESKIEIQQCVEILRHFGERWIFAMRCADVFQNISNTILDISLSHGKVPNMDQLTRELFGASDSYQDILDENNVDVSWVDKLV
# Experiment: PBM E-score (8-mer binding enrichment) (E-score (-0.5 to 0.5)); higher = stronger / more preferred TF binding; most listed sequences are background and not binding sites
# Details: protein concentration: 200 nM; construct: GST-full length
# Method in brief: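 GST-tagged yeast TFs (full-length or DNA-binding domain) were made by PURExpress in vitro transcription/translation and applied at about 100-200 nM to universal all-10-mer Agilent arrays. The arrays were made double-stranded by primer extension, on fresh or once-stripped slides. Bound protein was detected with fluorescent anti-GST, and scans were normalised with masliner. Each ungapped eight-base word, pooled with its reverse complement, received an E-score (modified Wilcoxon-Mann-Whitney statistic) from the Universal PBM Analysis Suite.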
row,Sequence,PBM E-score
1,GCCATTCA,0.153
2,AGCTGCGA,-0.117
3,GCTGATGA,-0.169
4,ATTCTTTG,-0.174
5,ATTAAGGA,0.0825
6,CACGAGTC,-0.212
7,CTCTAATC,-0.0463
8,GACCGGAC,0.387
9,CAGCGGAG,0.352
10,ACCTTCGC,0.136
11,CAACAGCA,0.00701
12,AATCATAG,-0.154
13,ATATTGAA,-0.0371
14,CAAACGAG,-0.0052
15,AGCGCCCT,-0.00237
16,AAGAGGCC,0.195
17,GTTCGTGA,-0.0803
18,AGTACGTA,-0.0603
19,CAAAGTGG,-0.254
20,GTGACCGA,0.197
21,GACCGACC,0.308
22,GGTAGACC,-0.1
23,ACGAAGCG,-0.0171
24,CTTGCGCC,0.0443
25,CAGGTCCA,-0.0613

row,Sequence,PBM E-score
1,CCGACTAC,0.292
2,ATCGACGA,-0.0527
3,CACCACTG,-0.274
4,TCTATTCA,-0.172
5,AGCGGTCA,0.29
6,GGCTGACA,-0.00911
7,CATTCGGC,0.194
8,CGTACATA,0.0561
9,ACGAGAGG,-0.282
10,AATACAGA,-0.0777
11,TACTTCTA,-0.0933
12,GCGAATCC,-0.204
13,ACCCGACT,0.219
14,AAGCCGAG,0.0575
15,GACGCGAC,0.0896
16,GTTTTGTA,-0.1
17,CTCTTGAC,-0.182
18,CTCCCTTC,-0.271
19,AACGGGTC,0.182
20,AGCAAGAT,-0.0935
21,AATTACCG,0.395
22,AACATTCG,-0.183
23,GTTCAGAA,-0.065
24,TACCTGAA,-0.0506
25,ACAGACCC,-0.00703

row,Sequence,PBM E-score
1,AGTGGATG,-0.19
2,AACAAGAA,-0.165
3,AAAGCCCG,0.457
4,CTGCGCGC,0.0757
5,GTATTACA,0.167
6,AACTATCA,-0.114
7,CGGTGCCA,0.414
8,ACGGCCTA,0.176
9,AAAGGTGG,-0.216
10,TCCGCGCA,0.2
11,AGATGGCA,-0.0856
12,ACTCAGAT,-0.0785
13,ACGATTAA,0.0221
14,ACCTGAGC,-0.238
15,AAGATATA,0.0715
16,ATCTATCA,-0.106
17,CTGCAACA,-0.0854
18,CCTGTGTA,-0.131
19,AGGGTGTC,-0.106
20,CAGGAGAG,-0.17
21,AGAGCAAA,-0.348
22,CCAAGAGG,-0.138
23,AGAGATAC,-0.00514
24,ATAGAATA,-0.0414
25,AAGGAGGC,-0.266

row,Sequence,PBM E-score
1,CAAGACCA,-0.276
2,CCCCCTCG,-0.272
3,GTCTGCTA,-0.0848
4,ATTATGGG,-0.0481
5,ACTTCTGC,-0.063
6,CATGACGC,0.0269
7,CGTCGGCC,0.324
8,ATGACAAG,-0.0607
9,GACTTGGC,-0.25
10,GAGCCTTA,-0.0515
11,GTACGTAC,0.0373
12,GCAAAACA,-0.117
13,GTCATTCA,0.0151
14,AATACTAT,0.0224
15,CCCTCGAC,-0.0702
16,CGCGGGGA,0.305
17,ACCCGTAA,0.175
18,GAGACCTC,-0.145
19,CACGGTGA,0.282
20,CTCGGCGC,0.148
21,ACGCAATG,-0.0524
22,CGGCCATA,0.376
23,CGCCATAG,0.0546
24,ATAGCACC,0.396
25,CAGCATAG,-0.0954

row,Sequence,PBM E-score
1,CAGAGTCG,-0.0674
2,AGGTCTTA,0.0291
3,ATGTAAAG,-0.147
4,ACTTGTTG,-0.299
5,CTTACCCC,0.222
6,CTCAGAAA,-0.225
7,AAGAGACG,0.272
8,AGTACGCA,-0.101
9,CGGCTCTA,0.391
10,ACCAATAT,-0.298
11,ATGTACCG,0.274
12,AAGGAGTG,-0.106
13,CAGACTAA,-0.124
14,AACAGCAA,-0.168
15,ACCTCGCA,-0.0661
16,CGCCAAGC,0.0121
17,ACACACGC,0.0373
18,AACCGTGA,0.125
19,ACACCAGG,-0.163
20,CTCGCTCC,-0.201
21,AAATCAAC,-0.141
22,ACGCGGGC,0.281
23,AATACGCA,-0.249
24,AGGTATTC,-0.138
25,GTCGCCTA,-0.148

row,Sequence,PBM E-score
1,AGCGAGCA,-0.134
2,CCACGGAC,0.187
3,CGAGCCAA,-0.184
4,GATTACAC,-0.00962
5,ATATTATC,0.163
6,ACCTTCAC,-0.174
7,GCAAGGGA,-0.151
8,AGCGGGTG,0.125
9,CATAGCCA,-0.1
10,AGTCGCTA,-0.244
11,CTAGGCCC,0.193
12,CAAGTCCC,0.00375
13,GTGGGACA,-0.101
14,ATCCTATA,-0.0861
15,ATGTCCAC,-0.0116
16,GACCGTAC,0.0754
17,CACTGAAA,-0.221
18,CGATAATC,0.119
19,ACGTCACC,0.047
20,AAAAGAGC,0.0536
21,CGTAACTA,-0.161
22,CGGTTTTC,0.102
23,ATCGACAT,-0.0715
24,ATGTAGGA,-0.0464
25,AGTATATC,-0.0131

row,Sequence,PBM E-score
1,CGTTCGGC,0.151
2,CGCATTAC,0.0416
3,GCTGCACC,0.0154
4,AACTGTAA,-0.0519
5,CCCGGAAC,0.233
6,GAGGCCGC,0.322
7,CTACCATC,-0.109
8,ATCTCATA,-0.186
9,AGAGCTTA,-0.131
10,CGGACCCG,0.234
11,ACCTCATC,-0.248
12,CGGGCTTA,0.473
13,AGTTGTTG,-0.186
14,CCTGCCTA,-0.299
15,CAGAGCGG,0.264
16,ATATACTA,0.0349
17,CCCGTGTA,0.126
18,CCTGAGAA,-0.259
19,TCAGTCGA,-0.246
20,AAGAAACG,0.111
21,GGATCCGA,0.117
22,GGCTACCC,-0.137
23,GTTATGCA,-0.0691
24,ACCCGGAC,0.229
25,AAAAAACA,0.0316

row,Sequence,PBM E-score
1,ATTATCTA,-0.0957
2,GACATGTC,0.0605
3,GAAGGCGA,-0.0276
4,ATCATACC,0.155
5,GATATGGC,0.00035
6,ATTTCATG,-0.28
7,ATTGAGTA,-0.188
8,CAGAAGGC,-0.0224
9,CGAAATGA,-0.00376
10,CCGGGAGG,0.154
11,AGACAGAA,-0.216
12,CTGTTGGA,-0.152
13,GGAGACTA,-0.115
14,ACAGATGG,-0.21
15,ACACGTGT,-0.291
16,AGGATGAC,-0.189
17,ATGGTCGA,-0.198
18,GAACGTCA,-0.246
19,GGAAGAGA,0.00808
20,CCGCCAGC,0.356
21,CGGTATTA,0.472
22,ATAACAAT,0.0147
23,TAAGGGGA,0.087
24,ACCCCCAC,0.00633
25,ATCATCGG,0.299

row,Sequence,PBM E-score
1,AGAGTCAT,-0.313
2,AGCGTCAA,0.0319
3,GCGCGTTA,0.0855
4,ACTTCGAA,-0.242
5,ATTGACGC,0.0279
6,GAACCGAC,0.225
7,CGGATAAC,0.132
8,CAGTATCC,-0.0856
9,CTCCCTAC,-0.0607
10,GGGCGCAC,0.0767
11,AATATTAC,0.101
12,ACTCTGGC,-0.146
13,ATAAAATG,-0.0434
14,CGTGGTCA,-0.252
15,AGCGGGAT,0.25
16,ATATCGCA,-0.0216
17,AAGGACCA,-0.0213
18,AGCAAGAA,-0.0877
19,AGTTCCCG,0.196
